This is one part of the list.
T1: UNK ZnF1-3 (human, UniProt Q9C0B0 31-174)
T1 sequence: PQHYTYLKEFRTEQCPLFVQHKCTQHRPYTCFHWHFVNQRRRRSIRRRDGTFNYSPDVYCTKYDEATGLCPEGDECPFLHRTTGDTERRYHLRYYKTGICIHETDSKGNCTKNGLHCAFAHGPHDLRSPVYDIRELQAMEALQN

B1: 43049586_43049964_324_5pUTR_ENSMUSG00000036002_ENSMUST00000107956|mouse|control|control (ssRNA)
RNA: GGGAGUUCUACAGUCCGACGAUCCUGCACGUGGCGCAUGAAGCCCCCCUUGGGUCAGGGGGGCCCCCCCACACGGCCUUUAUGCUGGGCCUGGGCUGGGGGGCCUGGGGACAUCCCGAUGAAGAAGCCUCAAGCCUGGGCGCGCAACAGAGGAUUGAGCAUCA
B2: chr13:58910217:58910218:+_ENSMUSG00000055254_ENSMUST00000079828|mus_mus|FALSE|FALSE (ssRNA)
RNA: GGGAGUUCUACAGUCCGACGAUCGCUGUUAGGUUCCAACCUCGGGAAUGCCACGAUGCCUGGAGAAGGCUCAGUACACCAAAUCCUAGCGGAACUGCAUUUGCAGGACGUCGGGCAGGCGAGAGAGGCCCUCCAGAAGCCCAACAACAGAGGAUUGAGCAUCA
B3: 134191691_134191811_1389_3pUTR_ENSG00000181904_ENST00000394976|human|control|control (ssRNA)
RNA: GGGAGUUCUACAGUCCGACGAUCAACCUAUCACUGCUCAAAGGCAAACACUGAAGAAUUAUUUCAGGUAUAAUGGUUAAAUCAAUUAAUGCCAUGUAGAUCAAUAAAUUACAAGCUGCUUAAACCUAAAACAUUAAAAAUAAGCAACAGAGGAUUGAGCAUCA
B4: chr6:31383068:31383069:+_ENSMUSG00000025609_ENSMUST00000026699|mus_hu|FALSE|FALSE (ssRNA)
RNA: GGGAGUUCUACAGUCCGACGAUCAGCCUUUUCAAUCAACUCUUCGCAAGCAUCAAAAUCACCCUUCAACACCAGCUUGUCAUGAAUAUCUGUUAACAUGGGAUGUUCCAGUGCAAUCUUGGUUUUCUUUUGCAGUGACUCAAACAACAGAGGAUUGAGCAUCA
B5: chr2:216986912:216986913:+_ENSG00000079246_ENST00000392132|hu_hu|FALSE|FALSE (ssRNA)
RNA: GGGAGUUCUACAGUCCGACGAUCCAGUUUUCUCAGACUCUCACUGAAUGAAUAAAUUUCAUCCAACCCAUCUUCACCUUCUAAAGAUAUCAUCACCAUUUUCACUAUCUCAAGACCUUCUUUUUGCUGUUCGGUAAUUCCUUUCAACAGAGGAUUGAGCAUCA
B6: chr11:103733960:103733961:-_ENSMUSG00000034187_ENSMUST00000103075|mus_hu|FALSE|FALSE (ssRNA)
RNA: GGGAGUUCUACAGUCCGACGAUCCAUUUUAACUUCCAGUCUUCCAGGUCUAAGAAGAGCCUCAUCUAUCAGAUCUGGUCUAUUGGUCAUUCCAAUGACUAGGAUGUUGUUUAGCUGCUCCACGCCAUCAAUUUUGGACAGCAACAACAGAGGAUUGAGCAUCA
B7: chr7:97110809:97110810:-_ENSMUSG00000030619_ENSMUST00000107234|mus_hu|motif|central (ssRNA)
RNA: GGGAGUUCUACAGUCCGACGAUCGCCACUCUUAGAAAGUAUCAAAUCGCCUAACCAUCGCACACAAUCAACAUAAUUCCGGUGUAUGUCUCUGGUAGAAAAAUCAGGAAAAUGGAUUUUCUGAGAAAUAAAUGGCCUGUUAGUCAACAGAGGAUUGAGCAUCA
B8: 121658421_121658541_2640_CDS_ENSMUSG00000032525_ENSMUST00000035112|mouse|control|control (ssRNA)
RNA: GGGAGUUCUACAGUCCGACGAUCACGAGGACAUUCCCAUUCAGGCUUGGGUUUUCCUUCUUCUCUGCCUUUCCCCUGCUUAUCAUUCAAUGCUUCCACUUUUCCCUGCUUCUCCUUCUCUGGGGCUGAGUAUACUUGAACAUGCAACAGAGGAUUGAGCAUCA
B9: 63378929_63382814_644_CDS_ENSMUSG00000038005_ENSMUST00000037190|mouse|control|control (ssRNA)
RNA: GGGAGUUCUACAGUCCGACGAUCAAAAGUCUUUGUCACAACCUUCUUAUCUCUCUGUCUCAUCUUCACGGUUCUCUGUUCCAGUGAGUAUCCUAGUUUUCUGGCUGCUUCUGUGAGUUUUUCAUCUAUGUUUUUCAAAAUGCUCAACAGAGGAUUGAGCAUCA
B10: chrX:11616105:11616106:-_ENSMUSG00000040363_ENSMUST00000043441|mus_hu|motif|central (ssRNA)
RNA: GGGAGUUCUACAGUCCGACGAUCGAUGUUAUAACACGGUAAGAGGGGGGUCUCUGAAAAUUCAAAUUCAAACACAUCGCGGUAGGCAUCGUCAUCAUCAUCCUGGUCUUCUGGUCCUGGGGGGUUGGCUAAAACAUCAUAGCCCAACAGAGGAUUGAGCAUCA
B11: chr12:45699863:45699864:+_ENSMUSG00000020598_ENSMUST00000020939|mus_mus|FALSE|FALSE (ssRNA)
RNA: GGGAGUUCUACAGUCCGACGAUCUGCAGCAUGUCUCAUGCAUCGUAUUGAACUGGAUCCCGCACAGGGAAUAAUGUAAUCUAUUGAUGAUGUUGUAUUUCUUUUUAAUCAGUUCCAAGGAAAUUGAGAAAAACCCCACUCUGACAACAGAGGAUUGAGCAUCA
B12: chr11:77340908:77340909:-_ENSG00000074201_ENST00000525064|hu_hu|hu_hu_hu_mus_True|18_98 (ssRNA)
RNA: GGGAGUUCUACAGUCCGACGAUCGUUUGGAUCCCUGGAUAAUGCAUGUAAACUAAUGGUGGGGUAUUCCAGUGAGAAUCCUAAUCCCGAACCAUCUAACCAGGACAGGCGGCUCUCAGCGAUGUAAAGCGUGCCGGUGCCGAGCAACAGAGGAUUGAGCAUCA
B13: chr3:138341159:138341160:+_ENSG00000158234_ENST00000393035|hu_hu|FALSE|FALSE (ssRNA)
RNA: GGGAGUUCUACAGUCCGACGAUCGAGACUUUUCCCAUUAAUUUCCAGAGUAUAUUCAUAAGCAAAACCACUGAUAGCGUCUAUAUUUAUGGUCGCUUUUGUCUUUGCAGCUCCAACAUAGAAUGUUUCUUUGCCCACUAAUUUCAACAGAGGAUUGAGCAUCA
B14: chr13:100204777:100204778:-_ENSMUSG00000052727_ENSMUST00000064762|mus_hu|FALSE|FALSE (ssRNA)
RNA: GGGAGUUCUACAGUCCGACGAUCCUCCGCAGGGUUUGCUGGAUGCCACACAAUCAAAGAUGAGACUGAAGUUAAGUAGGAAAUCGGGAGAUCUACUUCUUGACCAUUAGGCAGAAUGAAUUCAGCCUUGUCUUUGUUGGUACCCAACAGAGGAUUGAGCAUCA
B15: chr4:95690885:95690886:+_ENSMUSG00000028572_ENSMUST00000156910|mus_mus|mus_mus_mus_hu_False|18_28 (ssRNA)
RNA: GGGAGUUCUACAGUCCGACGAUCUUUAGAAAAUGUUAAAUACCAUGCUAAAAUAUUUUCAAAGGCUUAUUUUAUUUUACCAGAAGUCACAGGCAAGCAGACACUACAAACAUACAAAAAUACAAACCUCAACAAUAUAACUGUCAACAGAGGAUUGAGCAUCA
B16: chr2:42509997:42509998:+_ENSG00000143924_ENST00000318522|hu_mus|hu_hu_hu_mus_True|68_68 (ssRNA)
RNA: GGGAGUUCUACAGUCCGACGAUCUCGCUGAGUCCUCUCCUCAUAAUUAAACAGGACUACCACUGAGGCAAUGAAAUAAACUAUCUCCCCUGUGGGAAGCAGGUAUACAUUCGCUCUACAGUCCUUUCCUCGAUAACCGUAUACCAACAGAGGAUUGAGCAUCA
B17: chr1:44156729:44156730:-_ENSMUSG00000026049_ENSMUST00000150911|mus_mus|FALSE|FALSE (ssRNA)
RNA: GGGAGUUCUACAGUCCGACGAUCAAGGUAUUUUUAAUUUAACCUCUGUAUGACUCAUUUUCACUGUUGAAAAAUAAGCGUAAGGUGCACUACAUCUGAGAAGCAAAGGGCAUCUCUCUGAAAAGCAGAUUCUGUUGUAAAAGGCAACAGAGGAUUGAGCAUCA
B18: chr11:29408400:29408401:+_ENSMUSG00000032740_ENSMUST00000040182|mus_mus|motif|central (ssRNA)
RNA: GGGAGUUCUACAGUCCGACGAUCGUUAAAAACAUAAUCACUUUAUCUUGUAAAUGCUAUUUGCUGGAAAACCAUCUCACGGAAAAAAGUUUCAGAAAAAUGAUUUUAUCUUGGAUCCAUUUGUGAAUACCUAGUGCAGCUUAUCAACAGAGGAUUGAGCAUCA
B19: 151748726_151749016_1130_CDS_ENSG00000182134_ENST00000458431|human|control|control (ssRNA)
RNA: GGGAGUUCUACAGUCCGACGAUCCACAGUCAAGUCUUCAGGCACACUAUUCUCAUAGUGCUGGGUCAUCUCAUUGACAAGCUUAUCCAAUUGCAGGCUGCGGGAGCCAACGAUCUGGAUCCAGAAGUGGUUAGGGUGCUCAGACAACAGAGGAUUGAGCAUCA
B20: chr11:77336104:77336105:-_ENSG00000074201_ENST00000525064|hu_mus|hu_hu_hu_mus_False|18_18 (ssRNA)
RNA: GGGAGUUCUACAGUCCGACGAUCCUCACACAUUGCUGUGAACAUCGCCUCCAAUGCUGACUUAUCACUGGGCACAAAUCGAAAUUCAGAAAUGGGUUCAACAUCAUCAUUGUCUUCUUCCUCUUCUUCAGAGAGAGGUUCUUUCAACAGAGGAUUGAGCAUCA
B21: chr9:104964252:104964253:+_ENSMUSG00000032563_ENSMUST00000142424|mus_hu|FALSE|FALSE (ssRNA)
RNA: GGGAGUUCUACAGUCCGACGAUCAUCUGUUAUAUUAAAGAUUUUAACUGUCUGUUUCGGCGGCAAUCCAAGUUCCCGGUAAAAUUCCAAUAUGGAUGUAGCUUUACGAAAACGUGAUACAGUUUUUCCUCCUACAGACAGGGUCAACAGAGGAUUGAGCAUCA
B22: chr5:21390796:21390797:-_ENSMUSG00000042453_ENSMUST00000160791|mus_mus|FALSE|FALSE (ssRNA)
RNA: GGGAGUUCUACAGUCCGACGAUCGGUAUCUGCAUUAACUUUCUGCAUAAUACAAGUAGGUCAAAGUCCAGCAGCAAAAUAUUGCAACACAGCAAGUAGAUACAGUUUCAGUGUGUUAUACGGUAGAGAAGAAUACAUAAAGGACAACAGAGGAUUGAGCAUCA

target: T1, UNK ZnF1-3; assay: nsRBNS (natural sequence RNA bind-n-seq); RBNS binding buffer (assumed for nsRBNS): 25 mM Tris pH 7.5, 150 mM KCl, 3 mM MgCl2, 0.01% Triton X-100, 500 ug/ml BSA, 20 U/ml SUPERase-In, 4 C; UNK is unkempt and MSI1 is Musashi-1; names of the RNAs are library labels; protein concentration not given here; high values mean tight binding

Binder | binding signal
B1 | 0.675 enrichment R
B2 | 0.564 enrichment R
B3 | 2.26 enrichment R
B4 | 1.24 enrichment R
B5 | 0.784 enrichment R
B6 | 0.771 enrichment R
B7 | 1.42 enrichment R
B8 | 0.598 enrichment R
B9 | 0.349 enrichment R
B10 | 1.28 enrichment R
B11 | 1.1 enrichment R
B12 | 1.15 enrichment R
B13 | 0.835 enrichment R
B14 | 1.14 enrichment R
B15 | 1.86 enrichment R
B16 | 0.916 enrichment R
B17 | 1.26 enrichment R
B18 | 1.04 enrichment R
B19 | 1.14 enrichment R
B20 | 0.901 enrichment R
B21 | 1.19 enrichment R
B22 | 1.42 enrichment R
